Assay results: patent US7425576B2, “Compounds as inhibitors of hepatitis C virus NS3 serine protease” (Schering Corporation, priority 2004, dated 2008)

Target: Recombinant heterodimeric HCV NS3/NS4A protease (strain 1a) (Hepatitis C virus genotype 1a, UniProt P27958)
Assay: Spectrophotometric assay for HCV protease inhibitory activity (chromogenic ester substrates)
Format: biochemical

C#CCCC(NC(=O)[C@@H]1[C@@H]2[C@H](CN1C(=O)[C@@H](NC(=O)N[C@H](COC(=O)NCC)C1CCCCC1)C1CCCCC1)C2(C)C)C(=O)C(=O)NCC=C (some centres unmarked) [Example 1101]
Ki (Table 1, Ki* range class): < 75 nM

C#CCCC(NC(=O)[C@@H]1[C@@H]2[C@H](CN1C(=O)[C@@H](NC(=O)N[C@H](COC(=O)NCC)C1CCCCC1)C1(C)CCCCC1)C2(C)C)C(=O)C(=O)NCC=C (some centres unmarked) [Example 1104]
Ki (Table 1A, Ki* range class): < 75 nM | Ki (Table 6A, numeric Ki*): 13 nM

C#CCCC(NC(=O)[C@@H]1[C@@H]2[C@H](CN1C(=O)[C@@H](NC(=O)N[C@H](COC(=O)NCC(C)C)C(C)(C)C)C1(C)CCCCC1)C2(C)C)C(=O)C(=O)NCC=C (some centres unmarked) [Example 1108]
Ki (Table 1A, Ki* range class): < 75 nM | Ki (Table 6A, numeric Ki*): 9 nM

C#CCCC(NC(=O)[C@@H]1[C@@H]2[C@H](CN1C(=O)[C@@H](NC(=O)N[C@H](COC(=O)NCC1CCCCC1)C(C)(C)C)C1(C)CCCCC1)C2(C)C)C(=O)C(=O)NCC=C (some centres unmarked) [Example 1112]
Ki (Table 1A, Ki* range class): < 75 nM | Ki (Table 6A, numeric Ki*): 20 nM

C=CCNC(=O)C(=O)C(CCC)NC(=O)[C@@H]1[C@@H]2[C@H](CN1C(=O)[C@@H](NC(=O)N[C@H](COC(=O)NCC1CC1)C(C)(C)C)C1(C)CCCCC1)C2(C)C (some centres unmarked) [Example 1114]
Ki (Table 1A, Ki* range class): < 75 nM | Ki (Table 6A, numeric Ki*): 32 nM

C#CCCC(NC(=O)[C@@H]1[C@@H]2[C@H](CN1C(=O)[C@@H](NC(=O)N[C@H](COC(=O)NCC1CC1)C(C)(C)C)C1(C)CCCCC1)C2(C)C)C(=O)C(=O)NCC=C (some centres unmarked) [Example 1115]
Ki (Table 1A, Ki* range class): < 75 nM | Ki (Table 6A, numeric Ki*): 7.4 nM

C=CCNC(=O)C(=O)C(CCCC)NC(=O)[C@@H]1[C@@H]2[C@H](CN1C(=O)[C@@H](NC(=O)N[C@H](COC(=O)NCC1CC1)C(C)(C)C)C1(C)CCCCC1)C2(C)C (some centres unmarked) [Example 1116]
Ki (Table 1A, Ki* range class): < 75 nM | Ki (Table 6A, numeric Ki*): 34 nM

C#CCCC(NC(=O)[C@@H]1[C@@H]2[C@H](CN1C(=O)[C@@H](NC(=O)N[C@H](COC(=O)NCC1CC1)C(C)(C)C)C1(C)CCCCC1)C2(C)C)C(=O)C(=O)NCCC (some centres unmarked) [Example 1117]
Ki (Table 1A, Ki* range class): < 75 nM | Ki (Table 6A, numeric Ki*): 19 nM

C=CCNC(=O)C(=O)C(CCC1CC1)NC(=O)[C@@H]1[C@@H]2[C@H](CN1C(=O)[C@@H](NC(=O)N[C@H](COC(=O)NCC1CC1)C(C)(C)C)C1(C)CCCCC1)C2(C)C (some centres unmarked) [Example 1120]
Ki (Table 1A, Ki* range class): < 75 nM | Ki (Table 6A, numeric Ki*): 30 nM

C=CCNC(=O)C(=O)C(CCC(F)(F)F)NC(=O)[C@@H]1[C@@H]2[C@H](CN1C(=O)[C@@H](NC(=O)N[C@H](COC)C(C)(C)C)C1Cc3ccccc3C1)C2(C)C (some centres unmarked) [Example 1406]
Ki (Table 2, Ki* range class): 75 to 250 nM

COC(=O)OC[C@@H](NC(=O)N[C@H](C(=O)N1C[C@H]2[C@@H]([C@H]1C(=O)NC(CC1CC1)C(=O)C(N)=O)C2(C)C)C(C)(C)C)C(C)(C)C (some centres unmarked) [Example 1408]
Ki (Table 2, Ki* range class): < 75 nM

COC(=O)OC[C@@H](NC(=O)N[C@H](C(=O)N1C[C@H]2[C@@H]([C@H]1C(=O)NC(CC1CCC1)C(=O)C(N)=O)C2(C)C)C(C)(C)C)C(C)C (some centres unmarked) [Example 1409]
Ki (Table 2, Ki* range class): 75 to 250 nM

C=CCNC(=O)C(=O)C(CCC)NC(=O)[C@@H]1[C@@H]2[C@H](CN1C(=O)[C@@H](NC(=O)N[C@H](COC(=O)OC)C(C)(C)C)C(C)(C)C)C2(C)C (some centres unmarked) [Example 1410]
Ki (Table 2, Ki* range class): < 75 nM

CC(C)(C)[C@H](NC(=O)N[C@H](COC(=O)OCC1CC1)C(C)(C)C)C(=O)N1C[C@H]2[C@@H]([C@H]1C(=O)NC(CC1CCC1)C(=O)C(N)=O)C2(C)C (some centres unmarked) [Example 1412]
Ki (Table 2, Ki* range class): < 75 nM

CC(C)[C@@H](COC(=O)OCC1CC1)NC(=O)N[C@H](C(=O)N1C[C@H]2[C@@H]([C@H]1C(=O)NC(CC1CCC1)C(=O)C(N)=O)C2(C)C)C(C)(C)C (some centres unmarked) [Example 1414]
Ki (Table 2, Ki* range class): < 75 nM

COC(=O)OC[C@@H](NC(=O)N[C@H](C(=O)N1C[C@H]2[C@@H]([C@H]1C(=O)NC(CC1CC1)C(=O)C(N)=O)C2(C)C)C(C)(C)C)C1CCC1 (some centres unmarked) [Example 1415]
Ki (Table 2, Ki* range class): < 75 nM

CC(C)COC(=O)OC[C@@H](NC(=O)N[C@H](C(=O)N1C[C@H]2[C@@H]([C@H]1C(=O)NC(CC1CCC1)C(=O)C(N)=O)C2(C)C)C(C)(C)C)C(C)C (some centres unmarked) [Example 1417]
Ki (Table 2, Ki* range class): < 75 nM

COC(=O)OCC1(NC(=O)N[C@H](C(=O)N2C[C@H]3[C@@H]([C@H]2C(=O)NC(CC2CCC2)C(=O)C(N)=O)C3(C)C)C(C)(C)C)CCCCC1 (some centres unmarked) [Example 1421]
Ki (Table 2, Ki* range class): < 75 nM

CNC(=O)OC[C@@H](NC(=O)N[C@H](C(=O)N1C[C@H]2[C@@H]([C@H]1C(=O)NC(CC1CC1)C(=O)C(N)=O)C2(C)C)C1Cc2ccccc2C1)C(C)(C)C (some centres unmarked) [Example 1429]
Ki (Table 2, Ki* range class): < 75 nM

CC(C)(C)[C@H](NC(=O)N[C@H](COC(=O)NCC1CC1)C(C)(C)C)C(=O)N1C[C@H]2[C@@H]([C@H]1C(=O)NC(CC1CC1)C(=O)C(N)=O)C2(C)C (some centres unmarked) [Example 1432]
Ki (Table 2, Ki* range class): < 75 nM

COC(=O)OC[C@@H](NC(=O)N[C@H](C(=O)N1CC2[C@@H](C1C(=O)NC(CC1CC1)C(=O)C(N)=O)C2(C)C)C(C)(C)C)C1CCCC1 (some centres unmarked) [Example 1441]
Ki (Table 2, Ki* range class): < 75 nM

CCNC(=O)OC[C@@H](NC(=O)N[C@H](C(=O)N1C[C@H]2[C@@H]([C@H]1C(=O)NC(CC1CCC1)C(=O)C(N)=O)C2(C)C)C1CCCCC1)C(C)(C)C (some centres unmarked) [Example 1443]
Ki (Table 2, Ki* range class): 75 to 250 nM

CC(C)[C@@H](COC(=O)NC(C)(C)C)NC(=O)N[C@H](C(=O)N1C[C@H]2[C@@H]([C@H]1C(=O)NC(CC1CC1)C(=O)C(N)=O)C2(C)C)C1Cc2ccccc2C1 (some centres unmarked) [Example 1609]
Ki (Table 3, Ki* range class): 75 to 250 nM

CC(C)(C)C(=O)OC[C@@H](NC(=O)N[C@H](C(=O)N1C[C@H]2[C@@H]([C@H]1C(=O)NC(CC1CC1)C(=O)C(N)=O)C2(C)C)C(C)(C)C)C(C)(C)C (some centres unmarked) [Example 1611]
Ki (Table 3, Ki* range class): < 75 nM

CC(C)(C)C(=O)OC[C@@H](NC(=O)N[C@H](C(=O)N1C[C@H]2[C@@H]([C@H]1C(=O)NC(CC1CCC1)C(=O)C(N)=O)C2(C)C)C(C)(C)C)C(C)(C)C (some centres unmarked) [Example 1612]
Ki (Table 3, Ki* range class): < 75 nM

CC(C)(C)[C@H](NC(=O)N[C@H](COc1ccccc1)C(C)(C)C)C(=O)N1C[C@H]2[C@@H]([C@H]1C(=O)NC(CC1CC1)C(=O)C(N)=O)C2(C)C (some centres unmarked) [Example 1614]
Ki (Table 3, Ki* range class): 75 to 250 nM

CC(C)(C)[C@H](NC(=O)NC1(COCc2ccccc2)CCCCC1)C(=O)N1C[C@H]2[C@@H]([C@H]1C(=O)NC(CC1CCC1)C(=O)C(N)=O)C21CC1 (some centres unmarked) [Example 1616]
Ki (Table 3, Ki* range class): > 250 nM

CC(C)(C)[C@H](NC(=O)NC1(CO)CCCCC1)C(=O)N1C[C@H]2[C@@H]([C@H]1C(=O)NC(CC1CCC1)C(=O)C(N)=O)C21CC1 (some centres unmarked) [Example 1617]
Ki (Table 3, Ki* range class): 75 to 250 nM

CC(C)(C)[C@H](NC(=O)N[C@H](COc1ccccc1)C(C)(C)C)C(=O)N1C[C@H]2[C@@H]([C@H]1C(=O)NC(CC1CCC1)C(=O)C(N)=O)C2(C)C (some centres unmarked) [Example 1618]
Ki (Table 3, Ki* range class): 75 to 250 nM

CC(C)(C)[C@H](NC(=O)N[C@H](COCc1ccccc1)C(C)(C)C)C(=O)N1C[C@H]2[C@@H]([C@H]1C(=O)NC(CC1CCC1)C(=O)C(N)=O)C2(C)C (some centres unmarked) [Example 1619]
Ki (Table 3, Ki* range class): 75 to 250 nM

CC(C)(C)[C@H](NC(=O)CC1(COCc2ccccc2)CCCCCC1)C(=O)N1C[C@H]2[C@@H]([C@H]1C(=O)NC(CC1CC1)C(=O)C(N)=O)C2(C)C (some centres unmarked) [Example 1621]
Ki (Table 3, Ki* range class): < 75 nM

CC1(C)[C@@H]2[C@@H](C(=O)NC(CC3CC3)C(=O)C(N)=O)N(C(=O)[C@@H](NC(=O)NC3(COCc4ccccc4)CCCCCC3)C3Cc4ccccc4C3)C[C@@H]21 (some centres unmarked) [Example 1622]
Ki (Table 3, Ki* range class): > 250 nM

CC1(C)[C@@H]2[C@@H](C(=O)NC(CC3CC3)C(=O)C(N)=O)N(C(=O)[C@@H](NC(=O)NC3(COCc4ccccc4)CCCCCC3)C3CCCCC3)C[C@@H]21 (some centres unmarked) [Example 1623]
Ki (Table 3, Ki* range class): 75 to 250 nM

CC1(C)[C@@H]2[C@@H](C(=O)NC(CC3CC3)C(=O)C(N)=O)N(C(=O)[C@@H](NC(=O)NC3(CO)CCCCCC3)C3CCCCC3)C[C@@H]21 (some centres unmarked) [Example 1624]
Ki (Table 3, Ki* range class): < 75 nM

CC1(C)[C@@H]2[C@@H](C(=O)NC(CC3CC3)C(=O)C(N)=O)N(C(=O)[C@@H](NC(=O)NC3(CO)CCCCCC3)C3Cc4ccccc4C3)C[C@@H]21 (some centres unmarked) [Example 1625]
Ki (Table 3, Ki* range class): 75 to 250 nM

CC(C)(C)[C@H](NC(=O)NC1(CO)CCCCCC1)C(=O)N1C[C@H]2[C@@H]([C@H]1C(=O)NC(CC1CC1)C(=O)C(N)=O)C2(C)C (some centres unmarked) [Example 1626]
Ki (Table 3, Ki* range class): < 75 nM

CC(C)[C@@H](COC(C)(C)C)NC(=O)N[C@H](C(=O)N1C[C@H]2[C@@H]([C@H]1C(=O)NC(CC1CC1)C(=O)C(N)=O)C2(C)C)C(C)(C)C (some centres unmarked) [Example 1627]
Ki (Table 3, Ki* range class): < 75 nM

CC(C)(CO)NC(=O)N[C@H](C(=O)N1C[C@H]2[C@@H]([C@H]1C(=O)NC(CC1CC1)C(=O)C(N)=O)C2(C)C)C(C)(C)C (some centres unmarked) [Example 1628]
Ki (Table 3, Ki* range class): < 75 nM

COC[C@@H](NC(=O)N[C@H](C(=O)N1C[C@H]2[C@@H]([C@H]1C(=O)NC(CC1CC1)C(=O)C(N)=O)C2(C)C)C1Cc2ccccc2C1)C(C)(C)C (some centres unmarked) [Example 1630]
Ki (Table 3, Ki* range class): < 75 nM

COC[C@@H](NC(=O)N[C@H](C(=O)N1C[C@H]2[C@@H]([C@H]1C(=O)NC(CC1CCC1)C(=O)C(N)=O)C2(C)C)C1Cc2ccccc2C1)C(C)(C)C (some centres unmarked) [Example 1631]
Ki (Table 3, Ki* range class): < 75 nM | Ki (Table 6, numeric Ki*): 15 nM

CC(C)(CO)NC(=O)N[C@H](C(=O)N1C[C@H]2[C@@H]([C@H]1C(=O)NC(CC1CCC1)C(=O)C(N)=O)C2(C)C)C(C)(C)C (some centres unmarked) [Example 1632]
Ki (Table 3, Ki* range class): < 75 nM

CC(C)(COCc1ccccc1)NC(=O)N[C@H](C(=O)N1C[C@H]2[C@@H]([C@H]1C(=O)NC(CC1CCC1)C(=O)C(N)=O)C2(C)C)C(C)(C)C (some centres unmarked) [Example 1633]
Ki (Table 3, Ki* range class): 75 to 250 nM

CC(C)(C)[C@H](NC(=O)NC1(C(OCOCc2ccccc2)c2ccccc2)CCCC1)C(=O)N1C[C@H]2[C@@H]([C@H]1C(=O)NC(CC1CC1)C(=O)C(N)=O)C2(C)C (some centres unmarked) [Example 1634]
Ki (Table 3, Ki* range class): 75 to 250 nM

CC(C)(C)[C@H](NC(=O)NC1(C(O)c2ccccc2)CCCC1)C(=O)N1C[C@H]2[C@@H]([C@H]1C(=O)NC(CC1CC1)C(=O)C(N)=O)C2(C)C (some centres unmarked) [Example 1635]
Ki (Table 3, Ki* range class): < 75 nM
